PubChem BioAssay AID1259411 (Chemical Carcinogenesis Research Information System (CCRIS), 2018)
“Also recorded” adds a separate entry of the source. For part of its entries the source gives two or more results. This list holds those alone. The rule behind the calls is not given here. An entry can have further records. Results that share an entry differ, and nothing given here explains why; some may be repeats, others may stem from another dose, organism or construct than stated.

System: rodent carcinogenicity bioassays, tumor incidence
Experiment: CCRIS carcinogenicity studies
Settings: Species: Rat, Strain/Sex: Sprague-Dawley/Female (50/Group), Route: Oral, Dose: 0, 2, 10, 50 ppb in diet, continuous exposure from conception through PND 21, followed by control diet to 2 yr
Excerpt: The CCRIS database contains chemical records with carcinogenicity, mutagenicity, tumor promotion, and tumor inhibition test results. It was developed by the National Cancer Institute (NCI). Data are derived from studies cited in primary journals, current awareness tools, NCI reports, and other sources. Test results have been reviewed by experts in carcinogenesis and mutagenesis.
CCRIS provides historical information from the years 1985 - 2011. It is no longer updated.
This is an archive assay for CCRIS carcinogenicity studies.

C#C[C@]1(O)CC[C@H]2[C@@H]3CCc4cc(O)ccc4[C@H]3CC[C@@]21C
carcinogen call: inactive; negative (authors describe as equivocal evidence based on epithelial neoplasms (; also recorded: inactive; negative (authors describe as equivocal evidence based on stromal polyp (1/52, 7
